This is an account of results in PubChem BioAssay AID1745853 (National Center for Advancing Translational Sciences (NCATS), 2022).

Some of the results follow. Shown are side measurements of this screen, not its main read-out; they come without a call.

Holding throughout (experiment): Primary Screen for Target Class Profiling of Small Molecule Inhibitors of Methyltransferases
Experiment [1] has as its target Glycine N-methyltransferase (Homo sapiens) (UniProt Q14749). The note with it: purified enzyme, MTase-Glo SAH luminescence; measured here: GNMT inhibition; at 40 µM; stronger effect = lower value. The method, boiled down:
(§1)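 Each enzyme was reacted with SAM and its substrate, with compounds tested once at 40 uM; SAH formed was read by MTase-Glo luminescence.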

Experiment [2] concerns the target Guanidinoacetate N-methyltransferase (Homo sapiens) (UniProt Q14353). The conditions noted are these: purified enzyme, MTase-Glo SAH luminescence; measured here: GAMT inhibition; at 40 µM; stronger effect = lower value. The method, boiled down:
as §1

The target in experiment [3] is Histamine N-methyltransferase (Homo sapiens) (UniProt P50135). The note with it: purified enzyme, MTase-Glo SAH luminescence; measured here: HNMT inhibition; at 40 µM; stronger effect = lower value. The method, boiled down: as §1
Experiment [4] has as its target Nicotinamide N-methyltransferase (Homo sapiens) (UniProt P40261). The note with it: purified enzyme, MTase-Glo SAH luminescence; measured here: NNMT inhibition; at 40 µM; stronger effect = lower value. The method, boiled down: as §1
Experiment [5] concerns the target Phenylethanolamine N-methyltransferase (Homo sapiens) (UniProt P11086). The note with it: purified enzyme, MTase-Glo SAH luminescence; measured here: PNMT inhibition; at 40 µM; stronger effect = lower value. The method, boiled down: as §1
On the % scale 0 is the no-effect control and ±100 the full control effect.

As for `O=C(Nc1ccccc1)N1CCC2(C1)C(=O)N(CCc1ccccc1)c1ccccc12` (stereo not given), the activity change, negative = inhibition in experiment [1] was -4%; in experiment [2] it was -3.51%; in experiment [3], -2.49%; in experiment [4], -1.31%; in experiment [5], -1.74%.
The matching figures for `CC(C)CCN1C(=O)c2cc3ccccc3n2CC1(C)C(=O)NCc1ccccc1` (stereo not given): 2.5%, 2.08%, 6.83%, 2.9% and 1.08%.
On to `CC1(C(=O)NC2CCCCCCC2)Cn2c(cc3ccccc32)C(=O)N1CCN1CCOCC1` (stereo not given), for which the activity change, negative = inhibition in experiment [1] is 0.944%; in experiment [2] it was 4.27%; in experiment [3] it was 0.916%; in experiment [4] it was -3.54%; in experiment [5] it was -4.67%.
On to `O=C(Nc1ccc2[nH]c(=O)oc2c1)C(=O)N1CCC(Cc2ccc(F)cc2)CC1`, for which the activity change, negative = inhibition in experiment [1] was -4.4%; in experiment [2], 2.09%; in experiment [3] it was -1.59%; in experiment [4] it was -22.2%; in experiment [5], -6.1%.
As to `CCCCCNC(=O)c1ccc2c(=O)nc3c(-c4ccccc4)n[nH]n3c2c1`, the activity change, negative = inhibition in experiment [1] was -11.5%; in experiment [2] it was -1.8%; in experiment [3] it was -6.67%; in experiment [4], -9.29%; in experiment [5] it was -13.1%.
With `CCCn1c(=O)c2ccc(Cl)cc2n2c(SCc3ccc(F)cc3)nnc12`, the activity change, negative = inhibition in experiment [1] is -0.824%; in experiment [2], 3%; in experiment [3], 4.26%; in experiment [4] it was -2.64%; in experiment [5], 3.67%.
For `CC1(C)CC[C@]2(C(=O)O[C@@H]3O[C@H](CO)[C@@H](O)[C@H](O)[C@H]3O)CC[C@]3(C)C(=CCC4[C@@]5(C)C[C@@H](O)[C@H](O)[C@@](C)(CO)C5[C@H](O)C[C@]43C)C2C1` (stereo not given in full), the activity change, negative = inhibition was -3.96% in experiment [1]; -1.61% in experiment [2]; 10.8% in experiment [3]; -21.4% in experiment [4]; -11.3% in experiment [5].
As for `CCCCOc1ccccc1-c1cc2n(n1)CC(C)(C(=O)NC1CCCCC1)N(CC)C2=O` (stereo not given), the activity change, negative = inhibition is -5.06% in experiment [1]; 4.25% in experiment [2]; -1.66% in experiment [3]; -2.08% in experiment [4]; -1.12% in experiment [5].
The matching figures for `CCCC1c2cccn2CCN1C(=O)Nc1ccccc1C(F)(F)F` (stereo not given): 4.57%, 1.45%, -61.2%, 9.18% and 7.89%.
`CC(=O)Nc1nc(C)c(-c2ccc(Cl)c(S(=O)(=O)NCCO)c2)s1`: the activity change, negative = inhibition is 3.19% in experiment [1]; 6.33% in experiment [2]; 10.6% in experiment [3]; -13.9% in experiment [4]; 5.67% in experiment [5].
The matching figures for `CCOc1ccc(CN2C(=O)c3ccc(-c4ccco4)n3CC2(C)C(=O)NC2CCCCC2)cc1` (stereo not given): -4.21%, 5.82%, -2.44%, -1.5% and -1.85%.
For `COc1cccc(CN2C(=O)c3cc4ccccc4n3CC2(C)C(=O)NC2CCCCC2)c1OC` (stereo not given), in that order: -2.48%, 0.013%, 2.52%, -1.36% and -8.29%.
For `COc1cc(O)c2c(c1)C1=C[C@H](O)[C@@H](O)C[C@]1(C)OC2=O`, the activity change, negative = inhibition is -0.005% in experiment [1]; 6.52% in experiment [2]; 5.39% in experiment [3]; -8.12% in experiment [4]; 3.06% in experiment [5].
For `C[C@H]1CCCN1C(=O)c1nnc(CNCCCn2ccnc2)n1-c1ccccc1`, the activity change, negative = inhibition in experiment [1] was -5.88%; in experiment [2] it was -1.99%; in experiment [3] it was -1.8%; in experiment [4] it was -8.03%; in experiment [5], 11.6%.
On to `Cc1cc(C(=O)N2CCCC(n3c(C)cnc3C3CCC3)C2)nn1C` (stereo not given), for which the activity change, negative = inhibition in experiment [1] was -0.455%; in experiment [2], 1.67%; in experiment [3], -7.95%; in experiment [4], -5.29%; in experiment [5], -1.75%.
For `CCCN1C(=O)CCc2cc(NC(=O)NCCCOCC)ccc21`, the activity change, negative = inhibition was -2.24% in experiment [1]; 0.866% in experiment [2]; -33.6% in experiment [3]; -3.31% in experiment [4]; 8.4% in experiment [5].
Take `CCCN1C(=O)c2c(C(=O)NCCN3CCOCC3)ncn2CC1(C)C(=O)NCc1ccc(F)cc1` (stereo not given): the activity change, negative = inhibition in experiment [1] came out at 1.93%; in experiment [2] it was 2.22%; in experiment [3], 9.37%; in experiment [4], 11.2%; in experiment [5], 10.1%.
For the molecule `CC(C)N1C[C@@H](COC(C)(C)C)[C@H](c2ccccc2)[S+]1(=O)[O-]`, the activity change, negative = inhibition in experiment [1] was -5.2%; in experiment [2], -5.43%; in experiment [3], -1.87%; in experiment [4] it was -9.7%; in experiment [5], -19%.
Consider `CN1CCN(S(=O)(=O)c2ccc(F)cc2)CC12CCNC(=O)CC2` (stereo not given), for which the activity change, negative = inhibition is -4.18% in experiment [1]; -9.11% in experiment [2]; -4.82% in experiment [3]; -12% in experiment [4]; -8.66% in experiment [5].
With `Cc1cc(CN(C)C(=O)c2cc(COc3ccc4c(c3)OCO4)[nH]n2)on1`, the activity change, negative = inhibition in experiment [1] is -4.95%; in experiment [2] it was -3.7%; in experiment [3] it was -0.959%; in experiment [4], -10.6%; in experiment [5] it was -20.6%.
For the molecule `Cc1ccc(CN2CCOCCNC(=O)[C@H]3CCCC[C@H]32)s1`, the activity change, negative = inhibition in experiment [1] was -5.14%; in experiment [2] it was -6.47%; in experiment [3], -1.84%; in experiment [4], -7.52%; in experiment [5], -2.44%.
Regarding `CCCCOc1ccc(CNC(=O)c2cc3n(n2)CC(C)(C(=O)NCc2ccc(C)cc2)N(C)C3=O)cc1` (stereo not given), the activity change, negative = inhibition in experiment [1] was 5.55%; in experiment [2], 0.701%; in experiment [3] it was 6.07%; in experiment [4], 6.39%; in experiment [5] it was 6.47%.
As for `CC(=O)OC1C[C@@]2(C)[C@@H](CC[C@@H](C)[C@]23Cc2c(O)cc4c(c2O3)CNC4=O)C(C)(C)[C@@H]1O` (stereo not given in full), the activity change, negative = inhibition was 5.14% in experiment [1]; 0.959% in experiment [2]; 9.6% in experiment [3]; -11.2% in experiment [4]; -5.26% in experiment [5].
Turning to `Cc1nn(-c2ccccc2)c(C)c1Cc1nc(C(C)C)no1`, the activity change, negative = inhibition in experiment [1] was -6.65%; in experiment [2], -6.24%; in experiment [3], -5.83%; in experiment [4], -13.1%; in experiment [5], -6.49%.
Take `COC(=O)c1cc(OC)c(O[C@@H]2O[C@@H](C)[C@H](O)[C@@H](O)[C@H]2O)c(OC)c1`: the activity change, negative = inhibition in experiment [1] was 6.59%; in experiment [2], 6.23%; in experiment [3], 2.43%; in experiment [4], -6.91%; in experiment [5], 7.01%.
In the case of `CC(C)Cn1c(=O)c2ccc(C(=O)NC3CCCC3)cc2n2c(=O)n(CC(=O)NC3CCCCC3)nc12`, the activity change, negative = inhibition amounted to 3.35% in experiment [1]; 2.93% in experiment [2]; 4.11% in experiment [3]; 2.59% in experiment [4]; 2.2% in experiment [5].
Take `CCCn1ncc(CN2CCCC(C(=O)c3cccc(OC(C)C)c3)C2)c1C` (stereo not given): the activity change, negative = inhibition is -1.75% in experiment [1]; 19.6% in experiment [2]; -7.55% in experiment [3]; -9.73% in experiment [4]; -6.86% in experiment [5].
Take `Cc1ccc(-c2noc(CNC(N)=O)n2)nn1`: the activity change, negative = inhibition was -6.62% in experiment [1]; -5.09% in experiment [2]; 1.34% in experiment [3]; -44.1% in experiment [4]; -1.7% in experiment [5].
For `COc1ccc(Br)cc1CN1C(=O)c2cc3ccccc3n2CC1(C)C(=O)NCCCOC(C)C` (stereo not given), in that order: 4.26%, 5.28%, 6.69%, 1.26% and 1.81%.
Turning to `CCCn1c(=O)c2ccc(C(=O)NC(C)C)cc2n2c(SCC(=O)Nc3ccc(C)cc3)nnc12`, the activity change, negative = inhibition in experiment [1] was 2.8%; in experiment [2], 6.15%; in experiment [3] it was 8.2%; in experiment [4], -6.18%; in experiment [5], -2.2%.
As to `COCc1ncc(C)n1CCNC(=O)c1ccc(OC)nc1OC`, the activity change, negative = inhibition is -2.54% in experiment [1]; -2.79% in experiment [2]; -1.68% in experiment [3]; -5.15% in experiment [4]; 8.37% in experiment [5].
On to `Cc1cc2nn(CC(=O)Nc3ccc4c(c3)OCCO4)c(=O)n2c(Nc2ccccc2C)n1`, for which the activity change, negative = inhibition in experiment [1] is -2.18%; in experiment [2], 6.33%; in experiment [3] it was -10.5%; in experiment [4], -6.05%; in experiment [5], -1.74%.
In the case of `CC1(C)CC[C@]2(C(=O)OC3OC(CO)C(O)C(O)C3O)CC[C@]3(C)C(=CCC4[C@@]5(C)CC[C@H](OC6OC(C(=O)O)C(O)C(OC7OC(CO)C(O)C(O)C7O)C6O)C(C)(C)C5CC[C@]43C)C2C1` (stereo not given in full), the activity change, negative = inhibition in experiment [1] was 2.99%; in experiment [2] it was 4.4%; in experiment [3], 8.24%; in experiment [4] it was -7.5%; in experiment [5], 3.83%.
Turning to `COC(=O)c1ncn2c1C(=O)N(Cc1cccc(Br)c1)C(C)(C(=O)NC1CCCC1)C2` (stereo not given), the activity change, negative = inhibition in experiment [1] is -0.01%; in experiment [2], 3.53%; in experiment [3] it was 4.03%; in experiment [4], -1.66%; in experiment [5], -0.84%.
`Cc1cccc(C2c3cccn3-c3sc4c(c3CN2C(=O)Nc2ccccc2)CCCC4)c1` (stereo not given): the activity change, negative = inhibition in experiment [1] was -2.67%; in experiment [2], -2.38%; in experiment [3], -2.17%; in experiment [4], -5.46%; in experiment [5], -2.4%.
Regarding `Cn1cc(CN2C[C@H](C(=O)Nc3ccc(F)cc3)C[C@@H]2c2cccc(C(F)(F)F)c2)cn1`, the activity change, negative = inhibition is -8.66% in experiment [1]; -4.96% in experiment [2]; -4.02% in experiment [3]; -14.4% in experiment [4]; -4.3% in experiment [5].
Take `CCCOc1ccn2c(C(C)=O)cc(-c3ccccc3S(C)(=O)=O)c2c1`: the activity change, negative = inhibition in experiment [1] is 5.82%; in experiment [2], 5.76%; in experiment [3] it was 6.28%; in experiment [4] it was -11.9%; in experiment [5], 2.06%.
